# Measurements from the supplement of paper PMC8728848.
# Some of the results follow.
# Assays:
# Experiment in all cases: glycan array binding signal (z-score within array); higher = stronger binding
# Details in all cases: glycan notation: IUPAC condensed, linker removed
# [1] = target: Gal(b1-4)GlcNAc(b1-2)[Gal(b1-4)GlcNAc(b1-6)]Man(a1-6)[GlcNAc(b1-4)][Gal(b1-4)GlcNAc(b1-2)Man(a1-3)]Man(b1-4)GlcNAc(b1-4)GlcNAc
# Procedure, shortened: (§1)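 Glycan array data were curated from 3228 arrays in the Consortium for Functional Glycomics database and kept only where the protein sequence was available. Glycan names were converted to IUPAC-condensed notation, and columns mapping to the same glycan were averaged. The binding signal is a within-array Z-score, averaged across arrays of the same protein sequence at different concentrations or buffers and across linkers. Negative Z-scores can be read as non-binding.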
# [2] = target: Gal(b1-4)GlcNAc(b1-2)[Gal(b1-4)GlcNAc(b1-6)]Man(a1-6)[GlcNAc(b1-4)][Gal(b1-4)GlcNAc(b1-2)[Gal(b1-4)GlcNAc(b1-4)]Man(a1-3)]Man(b1-4)GlcNAc(b1-4)[Fuc(a1-6)]GlcNAc
# Procedure, shortened: as §1
# [3] = target: Gal(b1-4)GlcNAc(b1-3)Gal(b1-3)GalNAc
# Procedure, shortened: as §1
# [4] = target: Gal(b1-4)GlcNAc(b1-3)Gal(b1-3)GlcNAc
# Procedure, shortened: as §1
# [5] = target: Gal(b1-4)GlcNAc(b1-3)Gal(b1-4)Glc
# Procedure, shortened: as §1
# [6] = target: Gal(b1-4)GlcNAc(b1-3)Gal(b1-4)GlcNAc
# Procedure, shortened: as §1
# [7] = target: Gal(b1-4)GlcNAc(b1-3)Gal(b1-4)GlcNAc(b1-2)Man(a1-3)[Gal(b1-4)GlcNAc(b1-3)Gal(b1-4)GlcNAc(b1-2)Man(a1-6)]Man(b1-4)GlcNAc(b1-4)GlcNAc
# Procedure, shortened: as §1
# [8] = target: Gal(b1-4)GlcNAc(b1-3)Gal(b1-4)GlcNAc(b1-2)Man(a1-3)[Gal(b1-4)GlcNAc(b1-3)Gal(b1-4)GlcNAc(b1-2)Man(a1-6)]Man(b1-4)GlcNAc(b1-4)[Fuc(a1-6)]GlcNAc
# Procedure, shortened: as §1
# [9] = target: Gal(b1-4)GlcNAc(b1-3)Gal(b1-4)GlcNAc(b1-2)[Gal(b1-4)GlcNAc(b1-3)Gal(b1-4)GlcNAc(b1-6)]Man(a1-6)[Gal(b1-4)GlcNAc(b1-3)Gal(b1-4)GlcNAc(b1-2)Man(a1-3)]Man(b1-4)GlcNAc(b1-4)GlcNAc
# Procedure, shortened: as §1
# [10] = target: Gal(b1-4)GlcNAc(b1-3)Gal(b1-4)GlcNAc(b1-2)[Gal(b1-4)GlcNAc(b1-3)Gal(b1-4)GlcNAc(b1-6)]Man(a1-6)[Gal(b1-4)GlcNAc(b1-3)Gal(b1-4)GlcNAc(b1-2)Man(a1-3)]Man(b1-4)GlcNAc(b1-4)[Fuc(a1-6)]GlcNAc
# Procedure, shortened: as §1
# [11] = target: Gal(b1-4)GlcNAc(b1-3)Gal(b1-4)GlcNAc(b1-3)Gal(b1-4)GlcNAc
# Procedure, shortened: as §1
# [12] = target: Gal(b1-4)GlcNAc(b1-3)Gal(b1-4)GlcNAc(b1-3)Gal(b1-4)GlcNAc(b1-2)Man(a1-3)[Gal(b1-4)GlcNAc(b1-3)Gal(b1-4)GlcNAc(b1-3)Gal(b1-4)GlcNAc(b1-2)Man(a1-6)]Man(b1-4)GlcNAc(b1-4)GlcNAc
# Procedure, shortened: as §1
# [13] = target: Gal(b1-4)GlcNAc(b1-3)Gal(b1-4)GlcNAc(b1-3)Gal(b1-4)GlcNAc(b1-2)Man(a1-3)[Gal(b1-4)GlcNAc(b1-3)Gal(b1-4)GlcNAc(b1-3)Gal(b1-4)GlcNAc(b1-2)Man(a1-6)]Man(b1-4)GlcNAc(b1-4)[Fuc(a1-6)]GlcNAc
# Procedure, shortened: as §1
# [14] = target: Gal(b1-4)GlcNAc(b1-3)Gal(b1-4)GlcNAc(b1-3)Gal(b1-4)GlcNAc(b1-2)[Gal(b1-4)GlcNAc(b1-3)Gal(b1-4)GlcNAc(b1-3)Gal(b1-4)GlcNAc(b1-6)]Man(a1-6)[Gal(b1-4)GlcNAc(b1-3)Gal(b1-4)GlcNAc(b1-3)Gal(b1-4)GlcNAc(b1-2)Man(a1-3)]Man(b1-4)GlcNAc(b1-4)[Fuc(a1-6)]GlcNAc
# Procedure, shortened: as §1
# [15] = target: Gal(b1-4)GlcNAc(b1-3)Gal(b1-4)GlcNAc(b1-3)Gal(b1-4)GlcNAc(b1-3)Gal(b1-4)GlcNAc(b1-2)Man(a1-3)[Gal(b1-4)GlcNAc(b1-3)Gal(b1-4)GlcNAc(b1-3)Gal(b1-4)GlcNAc(b1-3)Gal(b1-4)GlcNAc(b1-2)Man(a1-6)]Man(b1-4)GlcNAc(b1-4)GlcNAc
# Procedure, shortened: as §1
# [16] = target: Gal(b1-4)GlcNAc(b1-3)Gal(b1-4)GlcNAc(b1-3)Gal(b1-4)GlcNAc(b1-3)Gal(b1-4)GlcNAc(b1-2)Man(a1-3)[Gal(b1-4)GlcNAc(b1-3)Gal(b1-4)GlcNAc(b1-3)Gal(b1-4)GlcNAc(b1-3)Gal(b1-4)GlcNAc(b1-2)Man(a1-6)]Man(b1-4)GlcNAc(b1-4)[Fuc(a1-6)]GlcNAc
# Procedure, shortened: as §1
# [17] = target: Gal(b1-4)GlcNAc(b1-3)Gal(b1-4)GlcNAc(b1-3)Gal(b1-4)GlcNAc(b1-3)Gal(b1-4)GlcNAc(b1-2)[Gal(b1-4)GlcNAc(b1-3)Gal(b1-4)GlcNAc(b1-3)Gal(b1-4)GlcNAc(b1-3)Gal(b1-4)GlcNAc(b1-6)]Man(a1-6)[Gal(b1-4)GlcNAc(b1-3)Gal(b1-4)GlcNAc(b1-3)Gal(b1-4)GlcNAc(b1-3)Gal(b1-4)GlcNAc(b1-2)Man(a1-3)]Man(b1-4)GlcNAc(b1-4)[Fuc(a1-6)]GlcNAc
# Procedure, shortened: as §1
# [18] = target: Gal(b1-4)GlcNAc(b1-3)Gal(b1-4)GlcNAc(b1-3)Gal(b1-4)GlcNAc(b1-3)Gal(b1-4)GlcNAc(b1-3)Gal(b1-4)GlcNAc(b1-2)Man(a1-3)[Gal(b1-4)GlcNAc(b1-3)Gal(b1-4)GlcNAc(b1-3)Gal(b1-4)GlcNAc(b1-3)Gal(b1-4)GlcNAc(b1-3)Gal(b1-4)GlcNAc(b1-2)Man(a1-6)]Man(b1-4)GlcNAc(b1-4)GlcNAc
# Procedure, shortened: as §1
# [19] = target: Gal(b1-4)GlcNAc(b1-3)Gal(b1-4)GlcNAc(b1-3)Gal(b1-4)GlcNAc(b1-3)Gal(b1-4)GlcNAc(b1-3)Gal(b1-4)GlcNAc(b1-2)Man(a1-3)[Gal(b1-4)GlcNAc(b1-3)Gal(b1-4)GlcNAc(b1-3)Gal(b1-4)GlcNAc(b1-3)Gal(b1-4)GlcNAc(b1-3)Gal(b1-4)GlcNAc(b1-2)Man(a1-6)]Man(b1-4)GlcNAc(b1-4)[Fuc(a1-6)]GlcNAc
# Procedure, shortened: as §1
# [20] = target: Gal(b1-4)GlcNAc(b1-3)Gal(b1-4)GlcNAc(b1-3)Gal(b1-4)GlcNAc(b1-3)Gal(b1-4)GlcNAc(b1-3)Gal(b1-4)GlcNAc(b1-2)[Gal(b1-4)GlcNAc(b1-3)Gal(b1-4)GlcNAc(b1-3)Gal(b1-4)GlcNAc(b1-3)Gal(b1-4)GlcNAc(b1-3)Gal(b1-4)GlcNAc(b1-6)]Man(a1-6)[Gal(b1-4)GlcNAc(b1-3)Gal(b1-4)GlcNAc(b1-3)Gal(b1-4)GlcNAc(b1-3)Gal(b1-4)GlcNAc(b1-3)Gal(b1-4)GlcNAc(b1-2)Man(a1-3)]Man(b1-4)GlcNAc(b1-4)[Fuc(a1-6)]GlcNAc
# Procedure, shortened: as §1
# [21] = target: Gal(b1-4)GlcNAc(b1-3)Gal(b1-4)GlcNAc(b1-3)Gal(b1-4)GlcNAc(b1-3)Gal(b1-4)GlcNAc(b1-3)Gal(b1-4)GlcNAc(b1-3)Gal(b1-4)GlcNAc(b1-2)Man(a1-3)[Gal(b1-4)GlcNAc(b1-3)Gal(b1-4)GlcNAc(b1-3)Gal(b1-4)GlcNAc(b1-3)Gal(b1-4)GlcNAc(b1-3)Gal(b1-4)GlcNAc(b1-3)Gal(b1-4)GlcNAc(b1-2)Man(a1-6)]Man(b1-4)GlcNAc(b1-4)GlcNAc
# Procedure, shortened: as §1
# [22] = target: Gal(b1-4)GlcNAc(b1-3)Gal(b1-4)GlcNAc(b1-3)GalNAc
# Procedure, shortened: as §1
# [23] = target: Gal(b1-4)GlcNAc(b1-3)Gal(b1-4)GlcNAc(b1-3)[Gal(b1-4)GlcNAc(b1-3)Gal(b1-4)GlcNAc(b1-6)]GalNAc
# Procedure, shortened: as §1
# [24] = target: Gal(b1-4)GlcNAc(b1-3)Gal(b1-4)GlcNAc(b1-6)[Gal(b1-3)]GalNAc
# Procedure, shortened: as §1
# [25] = target: Gal(b1-4)GlcNAc(b1-3)Gal(b1-4)[Fuc(a1-3)]GlcNAc(b1-3)Gal(b1-4)[Fuc(a1-3)]GlcNAc
# Procedure, shortened: as §1
# [26] = target: Gal(b1-4)GlcNAc(b1-3)GalNAc
# Procedure, shortened: as §1
# [27] = target: Gal(b1-4)GlcNAc(b1-3)[Fuc(a1-3)GlcNAc(b1-6)]Gal(b1-4)Glc
# Procedure, shortened: as §1
# [28] = target: Gal(b1-4)GlcNAc(b1-3)[Gal(b1-4)GlcNAc(b1-6)]Gal(b1-4)GlcNAc
# Procedure, shortened: as §1
# [29] = target: Gal(b1-4)GlcNAc(b1-3)[GlcNAc(b1-6)]Gal(b1-4)GlcNAc
# Procedure, shortened: as §1
# [30] = target: Gal(b1-4)GlcNAc(b1-6)Gal(b1-4)GlcNAc
# Procedure, shortened: as §1
# [31] = target: Gal(b1-4)GlcNAc(b1-6)GalNAc
# Procedure, shortened: as §1
# [32] = target: Gal(b1-4)GlcNAc(b1-6)[Gal(b1-3)]GalNAc
# Procedure, shortened: as §1
# [33] = target: Gal(b1-4)GlcNAc(b1-6)[Gal(b1-4)GlcNAc(b1-3)]GalNAc
# Procedure, shortened: as §1
# Gal(b1-4)GlcNAc6P = target: Gal(b1-4)GlcNAc6P
# Procedure, shortened: as §1
# Gal(b1-6)Gal = target: Gal(b1-6)Gal
# Procedure, shortened: as §1
# Gal3S(b1-3)GalNAc = target: Gal3S(b1-3)GalNAc
# Procedure, shortened: as §1
# Gal3S(b1-3)GlcNAc = target: Gal3S(b1-3)GlcNAc
# Procedure, shortened: as §1
# [34] = target: Gal3S(b1-3)[Fuc(a1-4)]GlcNAc
# Procedure, shortened: as §1
binder,measurement,setting,value
PX14343B-bfa-546-20-546 (Bacteroides fragilis) (protein) CDLERYPLTDLSEETFWNSESNAELALTSLYRGSLTDGVEYNPSDWWSYHGMIMMEHLSDNAFDRRGENNPFFKISSGNLTADNAFIKRYWETSYKRIGYCNRFLVGIQNSSESEKKTRMIAEARFLRATQYFYLASYFKNVPLVENVLTGEEANNVTKTSQADILKWCVTEFTAAAADLPRFSAIPAGEAGRACKQAALAFLGRTCMLQKDWKSGAKAFHDIMELGDNAINANYQELFYPSTGTSNKENIFYIQYLENYLGTGLPQHALSAKDGGWSLVNPAADLYESYEFKDGTPFSYDDPRYDPSNLGKDRDPRLDYTIYYNGAIFMGTEYKMSPDYSAAKKEKLDYTSEASRTGFMMRKYFEESTPINDVQSANGLTPVIRYAEVLLGYLECLVEDNQTITQGILDETINAVRGRASVNMPPVTEVTPAKLREIVRHERRIELAMEGIRYWDIMRWGIAHEVLSQKIWGAPYPGSTQYATTTKEVDPTGNYRWYVGKRAFRNPTDYTWPIPQSEQNINPNLRD,glycan array binding signal (z-score),[1],-0.134
same,glycan array binding signal (z-score),[2],-0.123
same,glycan array binding signal (z-score),[3],-0.111
same,glycan array binding signal (z-score),[4],-0.126
same,glycan array binding signal (z-score),[5],-0.123
same,glycan array binding signal (z-score),[6],-0.132
same,glycan array binding signal (z-score),[7],-0.109
same,glycan array binding signal (z-score),[8],-0.108
same,glycan array binding signal (z-score),[9],-0.122
same,glycan array binding signal (z-score),[10],-0.119
same,glycan array binding signal (z-score),[11],-0.113
same,glycan array binding signal (z-score),[12],-0.109
same,glycan array binding signal (z-score),[13],-0.133
same,glycan array binding signal (z-score),[14],-0.107
same,glycan array binding signal (z-score),[15],-0.057
same,glycan array binding signal (z-score),[16],-0.106
same,glycan array binding signal (z-score),[17],-0.088
same,glycan array binding signal (z-score),[18],-0.105
same,glycan array binding signal (z-score),[19],-0.105
same,glycan array binding signal (z-score),[20],-0.1
same,glycan array binding signal (z-score),[21],-0.101
same,glycan array binding signal (z-score),[22],-0.124
same,glycan array binding signal (z-score),[23],-0.098
same,glycan array binding signal (z-score),[24],-0.133
same,glycan array binding signal (z-score),[25],-0.13
same,glycan array binding signal (z-score),[26],-0.124
same,glycan array binding signal (z-score),[27],-0.123
same,glycan array binding signal (z-score),[28],-0.123
same,glycan array binding signal (z-score),[29],-0.121
same,glycan array binding signal (z-score),[30],-0.116
same,glycan array binding signal (z-score),[31],-0.116
same,glycan array binding signal (z-score),[32],-0.129
same,glycan array binding signal (z-score),[33],-0.113
same,glycan array binding signal (z-score),Gal(b1-4)GlcNAc6P,-0.129
same,glycan array binding signal (z-score),Gal(b1-6)Gal,-0.12
same,glycan array binding signal (z-score),Gal3S(b1-3)GalNAc,-0.132
same,glycan array binding signal (z-score),Gal3S(b1-3)GlcNAc,-0.117
same,glycan array binding signal (z-score),[34],-0.117
